Laboratory results published in patent US12473298B2, “Amide compounds, preparation method therefor, and use thereof in the medical field” (Shanghai Synergy Pharmaceutical Sciences Co., Ltd., priority 2019, dated 2025).
Like-named read-outs stand apart in the source and are kept apart here.

Assays:
[1] = Pharmacokinetic experiment in rats; format: in vivo, SD rats; conditions: for AUC / Cmax / bioavailability: male, SD, rat, plasma; for AUC: read-out: Area Curve (AUC, ng/mL · h); for half-life: male, SD, rat, plasma; rats, Intravenous-Dose 4 mg/kg; read-out: Half life T1/2, h) (converted); for Cmax: read-out: Blood Drug level (Cmax, ng/mL); for bioavailability: read-out: Bioavailability (P %)
Procedure: A certain amount of compound was weighted and dissolved in 0.1% Tween under vortex and ultrasound, and 0.5% carboxymethyl cellulose sodium (CMC-NA) solution was added to form a uniform solution.

[2] = test system: human diffuse large B-cell lymphoma cells (WSU-DLCL2 cell); assay: Pharmacodynamic experiment, WSU-DLCL2 transplanted tumor model in mice; format: in vivo, mice (CB17/SCID); conditions: for inhibited tumor growth: 150 mg/kg, intragastrically, twice a day for 21 days; for inhibition in vivo at 150 mg/kg: Mus musculus, WSUDLCL2, po, 504 h, read-out: inhibited tumor growth
[3] = test system: human diffuse large B-cell lymphoma cells (WSU-DLCL2 cell); assay: Pharmacodynamic experiment in combination with other drugs, WSU-DLCL2 transplanted tumor model in mice; format: in vivo, mice (CB17/SCID); conditions: for inhibitory effect on tumor growth: 125 mg/kg intragastrically twice a day for 21 days; for inhibited tumor growth: intragastrically, twice a day for 21 days
[4] = test system: human diffuse large cell lymphoma B lymphocytes (Pfeiffer cell); assay: Pfeiffer cell proliferation, Calcein AM staining; format: cell-based
[5] = test system: human diffuse large B-cell lymphoma cells (Karpas 422 cell); assay: Karpas 422 cell proliferation, Calcein AM staining; format: cell-based
Mutant type EZH2(A677G) = Mutant type EZH2(A677G) (Homo sapiens (Human), UniProt Q15910, A677G); assay: AlphaLISA, mutant type PRC2 complex EZH2(A677G); format: biochemical; conditions: read-out: Mutant type EZH2(A677G) IC59 Nanomoles per Liter
Sequence of Mutant type EZH2(A677G) (Q15910 whole entry A677G): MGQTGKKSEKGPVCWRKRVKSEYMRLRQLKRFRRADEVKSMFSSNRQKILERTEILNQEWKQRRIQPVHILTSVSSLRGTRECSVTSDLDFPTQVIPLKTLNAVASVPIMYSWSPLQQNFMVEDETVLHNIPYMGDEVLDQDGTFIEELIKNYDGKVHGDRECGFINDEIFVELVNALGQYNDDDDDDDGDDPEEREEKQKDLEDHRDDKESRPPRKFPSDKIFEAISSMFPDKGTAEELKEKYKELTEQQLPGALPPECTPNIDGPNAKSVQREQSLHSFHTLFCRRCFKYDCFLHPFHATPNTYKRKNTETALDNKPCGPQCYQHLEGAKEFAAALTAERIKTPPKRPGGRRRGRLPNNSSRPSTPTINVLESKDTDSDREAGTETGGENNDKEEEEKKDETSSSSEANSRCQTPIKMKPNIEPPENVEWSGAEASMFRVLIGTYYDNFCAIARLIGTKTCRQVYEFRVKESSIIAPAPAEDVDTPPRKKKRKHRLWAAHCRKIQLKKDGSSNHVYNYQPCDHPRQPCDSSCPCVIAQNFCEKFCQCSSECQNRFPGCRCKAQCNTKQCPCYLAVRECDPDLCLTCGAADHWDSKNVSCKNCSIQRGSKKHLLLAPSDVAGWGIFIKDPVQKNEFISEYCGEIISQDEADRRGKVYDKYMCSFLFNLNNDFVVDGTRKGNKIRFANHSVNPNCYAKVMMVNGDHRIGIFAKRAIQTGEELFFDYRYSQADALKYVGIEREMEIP
Sequence of Mutant type EZH2(A677G) (O75530 whole entry partner): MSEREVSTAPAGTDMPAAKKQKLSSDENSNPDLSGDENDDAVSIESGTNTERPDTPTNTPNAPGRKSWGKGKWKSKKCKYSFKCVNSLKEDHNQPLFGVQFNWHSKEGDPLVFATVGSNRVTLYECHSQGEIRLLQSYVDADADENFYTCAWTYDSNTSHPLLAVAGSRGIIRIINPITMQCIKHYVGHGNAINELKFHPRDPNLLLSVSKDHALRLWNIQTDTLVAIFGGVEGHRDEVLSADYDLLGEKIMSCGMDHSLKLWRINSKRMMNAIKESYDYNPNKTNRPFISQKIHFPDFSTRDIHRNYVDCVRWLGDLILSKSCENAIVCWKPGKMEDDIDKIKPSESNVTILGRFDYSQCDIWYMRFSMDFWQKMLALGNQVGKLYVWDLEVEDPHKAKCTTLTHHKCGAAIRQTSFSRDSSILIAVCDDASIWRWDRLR
Sequence of Mutant type EZH2(A677G) (Q15022 whole entry partner): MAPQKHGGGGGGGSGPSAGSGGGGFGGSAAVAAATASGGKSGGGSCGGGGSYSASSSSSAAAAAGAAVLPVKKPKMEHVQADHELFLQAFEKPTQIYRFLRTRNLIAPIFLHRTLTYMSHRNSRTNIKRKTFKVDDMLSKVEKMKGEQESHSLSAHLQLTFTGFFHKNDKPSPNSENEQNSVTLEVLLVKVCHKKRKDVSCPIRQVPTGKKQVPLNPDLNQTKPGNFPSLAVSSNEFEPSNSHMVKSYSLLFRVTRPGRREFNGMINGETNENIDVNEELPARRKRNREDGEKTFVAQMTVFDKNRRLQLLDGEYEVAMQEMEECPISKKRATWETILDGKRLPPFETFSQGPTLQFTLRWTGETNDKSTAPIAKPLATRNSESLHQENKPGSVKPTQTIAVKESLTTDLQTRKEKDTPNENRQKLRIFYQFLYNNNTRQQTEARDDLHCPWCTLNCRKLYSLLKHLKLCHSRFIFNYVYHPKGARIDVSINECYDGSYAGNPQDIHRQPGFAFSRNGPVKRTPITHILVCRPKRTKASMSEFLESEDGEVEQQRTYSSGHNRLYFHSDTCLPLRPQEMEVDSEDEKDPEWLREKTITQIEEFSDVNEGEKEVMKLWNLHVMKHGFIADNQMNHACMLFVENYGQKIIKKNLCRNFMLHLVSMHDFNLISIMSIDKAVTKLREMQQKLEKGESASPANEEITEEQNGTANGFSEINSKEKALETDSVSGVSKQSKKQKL
Sequence of Mutant type EZH2(A677G) (Q09028 whole entry partner): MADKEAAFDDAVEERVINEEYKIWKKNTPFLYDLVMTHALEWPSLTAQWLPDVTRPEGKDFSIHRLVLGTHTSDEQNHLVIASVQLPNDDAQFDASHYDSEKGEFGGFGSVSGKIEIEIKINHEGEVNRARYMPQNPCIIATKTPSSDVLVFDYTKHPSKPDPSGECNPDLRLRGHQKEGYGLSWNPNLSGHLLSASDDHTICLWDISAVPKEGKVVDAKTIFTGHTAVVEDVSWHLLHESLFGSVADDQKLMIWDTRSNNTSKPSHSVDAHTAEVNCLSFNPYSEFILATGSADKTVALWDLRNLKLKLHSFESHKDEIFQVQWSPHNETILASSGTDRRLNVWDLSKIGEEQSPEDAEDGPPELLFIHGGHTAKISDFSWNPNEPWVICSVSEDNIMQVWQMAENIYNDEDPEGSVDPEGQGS
Sequence of Mutant type EZH2(A677G) (Q6ZN18 whole entry partner): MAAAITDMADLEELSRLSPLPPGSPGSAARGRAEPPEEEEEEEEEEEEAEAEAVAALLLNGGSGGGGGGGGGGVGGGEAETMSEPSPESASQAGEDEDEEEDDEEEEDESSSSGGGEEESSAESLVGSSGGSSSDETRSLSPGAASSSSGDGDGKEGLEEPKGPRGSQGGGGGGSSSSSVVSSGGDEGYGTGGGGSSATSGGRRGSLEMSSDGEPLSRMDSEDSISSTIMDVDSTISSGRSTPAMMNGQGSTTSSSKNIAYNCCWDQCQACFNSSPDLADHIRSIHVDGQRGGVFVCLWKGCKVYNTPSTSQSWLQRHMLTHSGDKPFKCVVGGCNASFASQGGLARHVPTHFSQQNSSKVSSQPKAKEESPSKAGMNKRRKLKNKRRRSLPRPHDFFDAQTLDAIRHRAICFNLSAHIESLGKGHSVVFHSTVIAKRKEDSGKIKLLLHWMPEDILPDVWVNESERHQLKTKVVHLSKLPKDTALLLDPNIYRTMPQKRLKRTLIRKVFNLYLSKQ

[6] = rats, oral 20 mg/kg vs intravenous 4 mg/kg
[7] = combined with four positive control drugs (CHOP)
[8] = Homo sapiens, Pfeiffer, read-out: Pfeiffer Proliferation IC50 Nanomoles per Liter (nM)
[9] = KARPAS-422, read-out: Karpas422 Proliferation IC50 Nanomoles per Liter (nM)
[10] = Homo sapiens, Pfeiffer, data of 14th day, read-out: Pfeiffer Proliferation IC50 Nanomoles per Liter
[11] = KARPAS-422, data of 14th day, read-out: Karpas422 Proliferation IC50 Nanomoles per Liter
[12] = data of 14th day, read-out: Pfeiffer Proliferation IC50 Nanomoles per Liter

Row | IC50 [4, 10] [nM] | IC50 [5, 11] [nM] | Molecule | AUC ([1]; rats, Intravenous-Dose 4 mg/kg) [ng·h/mL] | half-life [1] [h] | AUC ([1]; rats, Oral-Dose 20 mg/kg) [ng·h/mL] | Cmax ([1]; rats, Oral-Dose 20 mg/kg) [ng/mL] | bioavailability [1, 6] [%] | other results
1 |  |  | 3-(ethyl(tetrahydro-2H-pyran-4-yl)amino)-5-(6-fluoro-2′,3′,5′,6′-tetrahydrospiro[indene-1,4′-pyran]-5-yl)-N-((4-methoxy-6-methyl-2-oxo-1,2-dihydropyridin-3-yl)methyl)-2-methylbenzamide 8-1 and 3-(ethyl(tetrahydro-2H-pyran-4-yl)amino)-5-(5-fluoro-2′,3′,5′,6′-tetrahydrospiro[indene-1,4′-pyran]-6-yl)-N-((4-methoxy-6-methyl-2-oxo-1,2-dihydropyridin-3-yl)methyl)-2-methylbenzamide 8-2 [Example 8] |  |  |  |  |  | Area Curve (AUC, ng/mL · h) ([1]; rats, Intravenous-Dose 4 mg/kg): 997.34 ng·h/mL; Half life T1/2, h) ([1]; rats, Intravenous-Dose 4 mg/kg): 1.07 h; Area Curve (AUC, ng/mL · h) ([1]; rats, Oral-Dose 20 mg/kg): 1556.85 ng·h/mL; Blood Drug level (Cmax, ng/mL) ([1]; rats, Oral-Dose 20 mg/kg): 454.90 ng/mL; Bioavailability (P %) [1, 6]: 31.22%; inhibited tumor growth [2]: 84%
2 |  |  | CCN(c1cc(-c2ccc3c(c2)N(C)C(=O)C32CCOCC2)c(Cl)c(C(=O)NCc2c(C)cc(C)[nH]c2=O)c1C)C1CCOCC1 [Example 10, 2-chloro-N-((4,6-dimethyl-2-oxo-1,2-dihydropyridin-3-yl)methyl)-5-(ethyl(tetrahydro-2H-pyran-4-yl)amino)-6-methyl-3-(1-methyl-2-oxo-2′,3′,5′,6′-tetrahydrospiro[dihydroindole-3,4′-pyran]-6-yl)benzamide] | 898 | 1.31 | 1560 | 515 | 34.8 | inhibitory effect on tumor growth [3, 7]: exceeded 98%; tumor disappearance ([3]; 125 mg/kg, combined with four positive control drugs (CHOP)): tumors in several mouse disappeared; inhibited tumor growth ([3]; 125 mg/kg): 83%
3 |  |  | CCCN1C(=O)C2(CCOCC2)c2ccc(-c3cc(C(=O)NCc4c(C)cc(C)[nH]c4=O)c(C)c(N(CC)C4CCOCC4)c3)cc21 [Example 19] | 995 | 1.72 | 1780 | 430 | 35.7 | IC50 [4, 8]: 0.15 nM; IC50 [5, 9]: 1.12 nM; inhibition in vivo at 150 mg/kg [2]: 89%
4 | 2.39 | 2.98 | CCN(c1cc(-c2cc3c(cc2F)C2(CCOCC2)CC3)cc(C(=O)NCc2c(C)cc(C)[nH]c2=O)c1C)C1CCOCC1 [Example 23] |  |  |  |  |  | 
5 |  |  | CCN(c1cc(-c2ccc3c(c2)N(C(C)C)CC32CCOCC2)cc(C(=O)NCc2c(C)cc(C)[nH]c2=O)c1C)C1CCOCC1 [Example 25] | 1020 | 1.81 | 1730 | 590 | 33.7 | inhibition in vivo at 150 mg/kg [2]: 87%
6 |  |  | CCN(c1cc(-c2ccc3c(c2)CCC32CCN(CC(F)(F)F)CC2)cc(C(=O)NCc2c(OC)cc(C)[nH]c2=O)c1C)C1CCOCC1 [Example 36] |  |  |  |  |  | IC50 [4, 12]: 1.54 nM
7 |  |  | CCN(c1cc(-c2ccc3c(c2)CCC32CCN(CC(F)(F)C(F)(F)F)CC2)cc(C(=O)NCc2c(OC)cc(C)[nH]c2=O)c1C)C1CCOCC1 [Example 42] |  |  |  |  |  | IC50 (Mutant type EZH2(A677G)): 0.49 nM; IC50 [4, 12]: 1.27 nM
8 | 3.2 | 4.15 | CCCN1C(=O)C2(CCOCC2)c2ccc(-c3cc(N(CC)C4CCOCC4)c(C)c(C(=O)NCc4c(C)cc(C)[nH]c4=O)c3Cl)cc21 [Example 47, 2-chloro-N-((4,6-dimethyl-2-carbonyl-1,2-dihydropyridin-3-yl)methyl)-5-(ethyl(tetrahydro-2H-pyran-4-yl)amino)-6-methyl-3-(2-carbonyl-1-propyl-2′,3′.5′,6′-tetrahydrospiro[dihydroindole-3,4′-pyran]-6-yl)benzamide] |  |  |  |  |  | 
9 |  |  | CCN(c1cc(-c2ccc3c(c2)N(CC(F)(F)C(F)(F)F)CC32CCOCC2)cc(C(=O)NCc2c(C)cc(C)[nH]c2=O)c1C)C1CCOCC1 [Example 51, N-((4,6-dimethyl-2-oxo-1,2-dihydropyridin-3-yl)methyl)-3-(ethyl(tetrahydro-2H-pyran-4-yl)amino)-2-methyl-5-(1-(2,2,3,3,3-pentafluoropropyl)-2′,3′,5′,6′-tetrahydrospiro[dihydroindole-3,4′-pyran]-6-yl)benzamide] |  |  |  |  |  | inhibited tumor growth [2]: 88%
10 | 1.56 | 1.72 | CCN(c1cc(-c2ccc3c(c2)N(CCC(F)(F)F)C(=O)C32CCOCC2)c(Cl)c(C(=O)NCc2c(C)cc(C)[nH]c2=O)c1C)C1CCOCC1 [Example 53, 2-chloro-N-((4,6-dimethyl-2-oxo-1,2-dihydropyridin-3-yl)methyl)-5-(ethyl(tetrahydro-2H-pyran-4-yl)amino)-6-methyl-3-(2-oxo-1-(3,3,3-trifluoropropyl)-2′,3′,5′,6′-tetrahydrospiro[dihydroindole-3,4′-pyran]-6-yl)benzamide] |  |  |  |  |  | 
11 | 1.47 | 2.43 | CCCN1CC2(CCOCC2)c2ccc(-c3cc(N(CC)C4CCOCC4)c(C)c(C(=O)NCc4c(C)cc(C)[nH]c4=O)c3Cl)cc21 [Example 57] | 979 | 1.15 | 1290 | 456 | 26.3 | inhibitory effect on tumor growth [3, 7]: exceeded 99%; inhibited tumor growth ([3]; 125 mg/kg): 81%
12 |  |  | CCCN1C(=O)C2(CCOCC2)c2ccc(-c3cc(N(CC)C4CCOCC4)c(C)c(C(=O)NCc4c(C)cc(C)[nH]c4=O)c3F)cc21 [Example 58] | 893 | 1.42 | 1540 | 500 | 34.5 | IC50 [4, 8]: 0.58 nM; IC50 [5, 9]: 0.74 nM; inhibition in vivo at 150 mg/kg [2]: 89%
13 |  |  | CCN(c1cc(-c2ccc3c(c2)N(C(C)C)C(=O)C32CCOCC2)c(F)c(C(=O)NCc2c(C)cc(C)[nH]c2=O)c1C)C1CCOCC1 [Example 60, N-((4,6-dimethyl-2-oxo-1,2-dihydropyridin-3-yl)methyl)-3-(ethyl(tetrahydro-2H-pyran-4-yl)amino)-6-fluoro-5-(1-isopropyl-2-oxo-2′,3′,5′,6′-tetrahydrospiro[dihydroindole-3,4′-pyran]-6-yl)-2-methylbenzamide] |  |  |  |  |  | IC50 [4, 8]: 2.1 nM; IC50 [5, 9]: 4.35 nM
14 |  |  | CCN1C(=O)C2(CCOCC2)c2ccc(-c3cc(N(CC)C4CCOCC4)c(C)c(C(=O)NCc4c(C)cc(C)[nH]c4=O)c3F)cc21 [Example 62, N-((4,6-dimethyl-2-oxo-1,2-dihydropyridin-3-yl)methyl)-3-(ethyl(tetrahydro-2H-pyran-4-yl)amino)-5-(1-ethyl-2-oxo-2′,3′,5′,6′-tetrahydrospiro[dihydroindole-3,4′-pyran]-6-yl)-6-fluoro-2-methylbenzamide] |  |  |  |  |  | IC50 [4, 8]: 0.27 nM; IC50 [5, 9]: 0.58 nM
15 |  |  | CCN(c1cc(-c2ccc3c(c2)N(C(C)C)CC32CCOCC2)c(F)c(C(=O)NCc2c(C)cc(C)[nH]c2=O)c1C)C1CCOCC1 [Example 63, N-((4,6-dimethyl-2-oxo-1,2-dihydropyridin-3-yl)methyl)-3-(ethyl(tetrahydro-2H-pyran-4-yl)amino)-6-fluoro-5-(1-isopropyl-2′,3′,5′,6′-tetrahydrospiro[dihydroindole-3,4′-pyran]-6-yl)-2-methylbenzamide] |  |  |  |  |  | IC50 [4, 8]: 2.89 nM; IC50 [5, 9]: 3.76 nM
16 |  |  | CCN(c1cc(-c2ccc3c(c2)N(C)CC32CCOCC2)cc(C(=O)NCc2c(C)cc(C)[nH]c2=O)c1C)C1CCOCC1 [Example 72, N-((4,6-dimethyl-2-oxo-1,2-dihydropyridin-3-yl)methyl)-3-(ethyl(tetrahydro-2H-pyran-4-yl)amino)-2-methyl-5-(1-methyl-2′,3′,5′,6′-tetrahydrospiro[dihydroindole-3,4′-pyran]-6-yl)benzamide] | 890 | 1.31 | 1080 | 567 | 24.3 | 
17 | 3.47 | 4.15 | CCN(c1cc(-c2ccc3c(c2)NC(=O)C32CCOCC2)cc(C(=O)NCc2c(C)cc(C)[nH]c2=O)c1C)C1CCC(N(C)CCOC)CC1 (stereo not shown) [Example 99, N-((4,6-Dimethyl-2-oxo-1,2-dihydropyridin-3-yl)methyl)-3-(ethyl(4-((2-methoxyethyl)(methyl)amino)cyclohexyl)amino)-2-methyl-5-(2-oxo-2′,3′,5′,6′-tetrahydrospiro[dihydroindole-3,4′-pyran]-6-yl)benzamide] |  |  |  |  |  | 
18 | 2.98 | 3.68 | CCN(c1cc(-c2ccc3c(c2)OCC32CCOCC2)cc(C(=O)NCc2c(C)cc(C)[nH]c2=O)c1C)C1CCOCC1 [Example 105, N-((4,6-Dimethyl-2-oxo-1,2-dihydropyridin-3-yl)methyl)-3-(ethyl(tetrahydro-2H-pyran-4-yl)amino)-2-methyl-5-(2′,3′,5′,6′-tetrahydro-2H-spiro[benzofuran-3,4′-pyran]-6-yl)benzamide] |  |  |  |  |  | 
